This assay deals with NCI-H322M lung. As to the kind of experiment: NCI tumour cell line growth inhibition, 48 h.

Molecules are shown by their SMILES.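 Dose response: 5 concentrations. Exposure: 48 h. Format: 96-well plates. Endpoint: linear interpolation; highest concentration if not reached. GI50 is the concentration that inhibits growth by half. TGI: concentration producing complete growth inhibition.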 Active and inactive are the calls of the source. Cut-off read from the data, not from the text of the source: active = GI50 below about 0.43 µM; inactive = the rest. Peptide text beside a SMILES is read from it.

As to `O=Cc1ccc(-c2nccc3c2[nH]c2ccccc23)o1`, the TGI was > 100 µM.
Same read-out and setting: the value for `[N-]=[N+]=NC1=CC(=O)c2cccc3cccc1c23` was > 100 µM.
On to `CN(CCO)C1CCN(c2ccc(Nc3ncc4c5ccnc(F)c5n(C5CCCC5)c4n3)nc2)CC1`, for which the GI50 is 6.42 µM and the TGI is 24.3 µM.
On the same counts, the results for `O[C@H]1C=C2[C@H](C[C@@H]1O)CN1C[C@H]2c2cc3c(cc21)OCO3` are 11.1 µM and 48.2 µM.
Turning to `CCCCCCCCNC(=O)C1=C(C)NC(C)=C(C(=O)NCCCCCCCC)C1`, the TGI is > 100 µM.
Same read-out and setting: the value for `COC(=O)CCC(C)[C@H]1CCC2C3C(C[C@H](OC(C)=O)[C@@]21C)[C@@]1(C)CCC2(C[C@H]1C[C@H]3OC(C)=O)OOC1(CCCCCCC1)OO2` (stereo not given in full) was > 100 µM.
With `CCSc1ccc2c(c1)N(CCCN1CCN(C)CC1)c1ccccc1S2`, the GI50 is 3.08 µM and the TGI is 8.18 µM.
Take `COC(=O)C(Cc1c[nH]c2ccccc12)NC(=O)C(Cc1c[nH]c2ccccc12)NC(=O)OCc1ccccc1` (stereo not given): the TGI amounted to 36.4 µM.
The same measure, in the same setting: the value for `O=c1[nH]c2cc(Cl)ccc2nc1/C(=N/Nc1ccccc1)C(O)c1ccco1` (stereo not given) was > 100 µM; that for `CC1(C)C[C@H]2[C@H](O)C(CO)=C3C(=O)[C@@H](O)[C@]3(C)[C@H]2C1` was > 100 µM.
Take `O=C1Nc2ccccc2S/C1=C\c1ccc(C(F)(F)F)cc1`: the TGI was > 100 µM.
`CC(SC(=S)Nc1cccc(F)c1)C(=O)O` (stereo not given): the TGI was 98.6 µM.
The same measure, in the same setting: the value for `O=S(=O)(O)c1ccc2c(N=Nc3cccc4ccccc34)c(O)c(S(=O)(=O)O)cc2c1` was > 100 µM.
In the case of `COC(=O)c1cc2cc(-c3ccc(OC)cc3)cnc2[nH]1`, the GI50 was 4.73 µM and the TGI was determined as 48 µM.
The matching figures for `CCC(/C=C(C)/C=C/C(=O)c1c(O)c(-c2ccc(O)cc2)c[nH]c1=O)CO` (stereo not given): 11.6 µM and 26.1 µM.
In the case of `Cc1ccc(-c2c(C#N)c(N)[nH]c(=S)c2C#N)cc1`, the TGI was > 100 µM.
As for `O=C1c2cc3c(cc2[C@@H]2NC4CCCC14O2)OCO3` (stereo not given in full), the TGI was > 100 µM.
`CCOC(=O)c1oc2c(OC)cc(Cl)c3c2c1CCC3`: the TGI was > 100 µM.
Take `CCCCC/C=C/C(=O)CCc1ccc(O)c(OC)c1`: the GI50 is 13.6 µM and the TGI was 28 µM.
On to `COc1cccc(NC(=O)CC(=O)Nc2cccc(OC)c2)c1`, for which the TGI is > 100 µM.
On the same count and under the same terms, in the case of `CNc1cc(N)ccc1C(=O)N1CCC[C@H]1CO` it was > 100 µM.
In the case of `O=C(C(Br)C(Br)c1ccccc1)C(Br)C(Br)c1ccccc1` (stereo not given), the GI50 was 7.38 µM and the TGI amounted to 21.9 µM.
The matching figures for `C=CCOC1=CC(=O)c2ccccc2C1=O`: 15.4 µM and 29.6 µM.
As to `O=C1C=CC(=O)N1n1c(Cc2ccccc2)n[nH]c1=O`, the TGI is > 100 µM.
`O=C(c1ccco1)N(Cc1cccnc1)C(=S)N(Cc1cccnc1)C(=O)c1ccco1`: the TGI was 39.9 µM.
On the same count and under the same terms, the value for `N#Cc1nc(-c2cccnc2)oc1N` was > 100 µM; that for `Cc1nc(C(N)=S)sc1C(=O)CC(=O)C(=O)Nc1c(C(C)C)cccc1C(C)C` was 89.4 µM.
In the case of `CCOC(=O)c1ccc(NC(=O)Nc2nccs2)cc1`, the GI50 is 0.0818 µM and the TGI came to 58.8 µM.
As to `C=C(C)[C@@H]1CC[C@]2(COC(C)=O)CC[C@]3(C)[C@H](CC[C@@H]4[C@@]5(C)CCCN(C(C)=O)C(C)(C)[C@@H]5CC[C@]43C)[C@@H]12`, the GI50 is 1.63 µM and the TGI turned out to be 3 µM.
`C[C@H](N)C(O)C/C=C\C/C=C\C/C=C\C/C=C\C/C=C\C/C=C\CCCCCCC(O)[C@H](C)N` (stereo not given in full): the result was inactive.
Take `CN1CCN(C(=S)N(C(=O)c2cccs2)c2ccccc2)CC1`: the TGI was > 100 µM.
For the compound `CN1CCN(Cc2ccc(NC(=O)c3cnc(F)c(C#Cc4cnc(N)c5ncccc45)c3)cc2C(F)(F)F)CC1`, the GI50 is 0.397 µM and the TGI turned out to be 11.6 µM.
Regarding `Brc1sc(Br)c2c1[C@H](Br)C[C@@H]2Br`, the TGI is > 100 µM.
Still for that read-out and setting: in the case of `CN1CN(c2ccccc2)C2(CCN(Cc3nc4ccccc4s3)CC2)C1=O` it was 40.3 µM; in that of `O=CCOCc1cc2c(cc1Br)OCO2`, > 100 µM.
Same read-out and setting: the value for `OCC(CO)C1c2cccc3ccc4cccc1c4c23` was > 100 µM; that for `C[C@]12CCc3nonc3C1CC[C@@H]1C2CC[C@]2(C)C(=O)/C(=N\O)CC12` (stereo not given in full) was > 100 µM.
As for `Cc1cc([N+](=O)[O-])c(C)c2c1[nH]c1ccc(O)cc12`, the TGI is > 100 µM.
Still for that read-out and setting: the value for `COc1ccc(N(CC(=O)O)S(=O)(=O)c2ccccc2)cc1` was > 100 µM.
For `COc1ccc(CN2CCc3c(Sc4ccccc4)nc(N)nc3C2=O)c(OC)c1`, the GI50 was 4.02 µM and the TGI came out at 16.9 µM.
The matching figures for `Cn1cc(C2=C(c3cn(C)c4cc(C(=O)O)ccc34)C(=O)NC2=O)c2ccccc21`: > 25 µM and > 25 µM.
`Cc1ccc(Nc2nc3c(s2)C(=O)c2ccccc2C3=O)cc1` displayed a TGI of 3.24 µM.
Still for that read-out and setting: the value for `c1ccc(C(c2ccccc2)c2ccncc2)cc1` was > 100 µM; that for `COC(=O)Cc1ccc(Oc2nc3ccccc3nc2-c2cccs2)cc1` was > 100 µM; that for `CCOP(=O)(/C=C/n1ccc(=O)[nH]c1=O)OCC` was > 100 µM.
Same read-out and setting: in the case of `CCC(C)NC1=C(NC(C)=O)C(=O)c2ccccc2C1=O` (stereo not given) it was > 75 µM; in that of `Cc1cc(O)c(C=NC(=S)C(N)=S)c(=O)o1`, > 100 µM.
On to `O=C1c2[nH]cc(CN3CCN(CCO)CC3)c2C(=O)c2c1c(O)c1ccccc1c2O`, for which the GI50 was 1.87 µM and the TGI is 9.14 µM.
Regarding `Cc1[nH]c2ncn(Nc3ccccc3)c(=N)c2c1Cc1ccccc1`, the TGI was > 100 µM.
In the case of `COc1ccc2c(c1)CC[C@@H]1[C@@H]2CC[C@]2(C)C(c3ccsc3)=C(/C=C/C(=O)c3ccccc3)C[C@@H]12`, the GI50 is > 100 µM and the TGI was > 100 µM.
On to `COc1ccc2c(c1)O[C@@H]1[C@@H](OC3OC(CO)C(O)C(O)C3O)Oc3cc(OC)c(OC)cc3[C@]1(O)C2=O` (stereo not given in full), for which the TGI was > 100 µM.
On to `Cc1ccc(NS(=O)(=O)c2ccc(-c3cnc(C4CC4)o3)cc2)cc1C`, for which the GI50 is 1.5 µM and the TGI was > 84.8 µM.
As for `CC(C)(Oc1ccc(C(=O)c2ccc(Cl)cc2)cc1Cl)C(=O)Nc1c(Cl)cccc1Cl`, the TGI is > 100 µM.
`Fc1cc(-c2cc(-c3ccccc3)n[nH]2)c(Cl)cc1Cl`: the TGI is > 100 µM.
`C#CC[N+](CCO)(CCO)CCCCCCCCCCCCCCCCCC` had a TGI of 27.9 µM.
Still for that read-out and setting: the value for `O=c1cc(NNc2ccc3ccccc3c2)[nH]c(=S)[nH]1` was > 100 µM.
On the same count and under the same terms, the value for `COc1ccc(N2C(=O)C3c4[nH]c5ccc(OC)cc5c4C4CCC(C(C)C)CC4C3C2=O)cc1` (stereo not given) was > 100 µM.
Same read-out and setting: in the case of `CCOC(=O)NC(=O)c1cn(-c2ccc(CCOC(=O)NCCCCCCNC(=O)OCCc3ccc(-n4c(=O)[nH]cc(C(=O)NC(=O)OCC)c4=O)cc3)cc2)c(=O)[nH]c1=O` it was > 100 µM.
With `CCN(CC)CCn1c(N)c(-c2nc3ccccc3n2C)c2nc(C#N)c(C#N)nc21`, the GI50 is 1.01 µM and the TGI worked out at 6.17 µM.
The matching figures for `c1cc(N2CCN(c3ccc(C4=NCCN4)cc3)CC2)ccc1C1=NCCN1`: > 100 µM and > 100 µM.
Take `C[C@]12CC[C@@H]3c4ccc(O)cc4CC[C@H]3[C@@H]1CC[C@@H]2OC(=O)CCC1CCCC1`: the TGI was 32 µM.
The same measure, in the same setting: the value for `CSc1nc(-c2ccccc2)c(C#N)c(=O)[nH]1` was > 100 µM.
For `NCC(=O)NC1(C(=O)O)CCCC1` (HELM PEPTIDE1{G.[O=C(O)C1(N[*:1])CCCC1]}$$$$V2.0), the TGI was > 100 µM.
The same measure, in the same setting: in the case of `CN(C(=O)c1cccs1)C(=S)N1CCN(c2ccccn2)CC1` it was > 100 µM; in that of `Cc1nc2nnnn2c2c1C(=O)Nc1ccccc1N2`, > 100 µM; in that of `CN=c1oc2ccccc2cc1C(N)=O`, > 100 µM.
Turning to `COC(=O)c1c2c(c(C)[n+]([O-])c1C)C(=O)C(NCc1cccc(Cl)c1)=CC2=O`, the GI50 was 1.35 µM and the TGI worked out at 4.73 µM.
As to `COc1cc(C(=O)C(CO)Oc2ccccc2OC)ccc1O` (stereo not given), the TGI is > 100 µM.
For the compound `COC(=O)C1CCC(=O)C(Sc2ccccc2)C1` (stereo not given), the TGI was > 100 µM.
Same read-out and setting: the value for `CC1(C)[C@@H](Cn2nnc3c(N)ncnc32)CC[C@@]1(C)CO` was > 100 µM.
For the compound `NS(=O)(=O)N(c1cc(C(F)(F)F)cc(C(F)(F)F)c1)C1CCN(Cc2ccc(C(F)(F)F)cc2)CC1`, the GI50 was 7.04 µM and the TGI turned out to be 16.8 µM.
As to `C[Si]1(C)C(c2ccccc2)=CC2C(c3ccccc3)(c3ccccc3)OC21c1ccccc1` (stereo not given), the TGI was > 100 µM.
The same measure, in the same setting: in the case of `CCCCCCCCCCCCC/C=C/[C@H]1[C@@H](C(=O)OC)N1S(=O)c1ccc(C)cc1` (stereo not given in full) it was > 100 µM; in that of `CCSc1nc(-c2ccc(OC)cc2)c(C#N)c(=O)n1C1OCC(OC(C)=O)C(OC(C)=O)C1OC(C)=O` (stereo not given), > 100 µM; in that of `Cc1ccc(NC(=O)CC/C(CC(=O)C(C)(C)C)=N/Nc2nnc(C)n2N)cc1C`, > 100 µM.
Same read-out and setting: in the case of `CC(=O)NC(C)(C)C1CC=C(C)/C(=N\O)C1` (stereo not given) it was > 100 µM.
Turning to `CCOC(=O)c1c2c(n(Cc3ccc(Cl)cc3Cl)c1C)-c1nc(Cc3ccccc3)[nH]c1C(=O)C2=O`, the GI50 is 2.03 µM and the TGI was determined as 5.21 µM.
On the same counts, the results for `O=[N+]([O-])c1cccc2nc3ccccc3c(NCCO)c12` are 0.000538 µM and 0.00332 µM.
On to `COc1ccc(C2CC(c3ccc4ccccc4c3O)=NN2)cc1OC` (stereo not given), for which the TGI was > 100 µM.
Take `O=C1C2=C(CCCC2)Nc2cccc3ncn1c23`: the TGI is > 100 µM.
Turning to `O=c1ccc(N=Nc2ccccc2)ccc1Cl`, the GI50 was 63.1 µM and the TGI is > 100 µM.
On the same counts, the results for `CC[C@@]1(O)C(=O)OCc2c1cc1n(c2=O)Cc2cc3c([N+](=O)[O-])c(OC)ccc3nc2-1` are 0.345 µM and 6.16 µM.
Regarding `Cn1c2ccccc2c(=NNc2ccc(S(N)(=O)=O)cc2)c2ccccc21`, the TGI was > 50 µM.
On the same count and under the same terms, the value for `O=C(CC1(O)C(=O)Nc2ccc([N+](=O)[O-])cc21)c1ccc2ccccc2c1` (stereo not given) was > 100 µM; that for `O=C(COc1ccc(OCC(=O)N2C(=O)CN(c3ccc(Cl)cc3)C2=S)cc1)N1C(=O)CN(c2ccc(Cl)cc2)C1=S` was 61.8 µM.
Same read-out and setting: the value for `COc1cc(/C=C/c2cccnc2)cc(OC)c1OC` was > 100 µM.

Source of the values: PubChem BioAssay (NCI).
